Assay results reported in patent publication US20260216365A1, “ANTIBODY-DRUG CONJUGATES AGAINST THE RECEPTOR TYROSINE KINASE EPHA5” (Rutgers, The State University of New Jersey, priority 2021, published 2026).

B1: VH5/VK3: humanized anti-EphA5 IgG1/kappa antibody; VH SEQ ID NO:6, VL SEQ ID NO:11; heavy chain SEQ ID NO:39, light chain SEQ ID NO:40 (antibody)
heavy: EVQLVESGGGLVQPGGSLKLSCAASGFTFSTFGIHWVRQAPGKGLEWVAYISGASTTIYYADSVKGRFTISRDNSKNTLYLQMNSLRAEDTAVYYCARYGTSFPYGLDYWGQGTLVTVSSASTKGPSVFPLAPSSKSTSGGTAALGCLVKDYFPEPVTVSWNSGALTSGVHTFPAVLQSSGLYSLSSVVTVPSSSLGTQTYICNVNHKPSNTKVDKRV[letters of human IgG1 Fc left out]
light: DIVMTQSPDSLAVSLGERATINCKASQSVDYDGDSYMNWYQQKPGKAPKLLIYGASNLESGIPDRFSGSGSGTDFTLTISRLEPEDAAVYYCQQSNEDPFTFGQGTKLEIKRTVAAPSVFIFPPSDEQLKSGTASVVCLLNNFYPREAKVQWKVDNALQSGNSQESVTEQDSKDSTYSLSSTLTLSKADYEKHKVYACEVTHQGLSSPVTKSFNRGEC
B2: VH4/VK3: humanized anti-EphA5 IgG1/kappa antibody; VH SEQ ID NO:5, VL SEQ ID NO:11; heavy chain SEQ ID NO:38, light chain SEQ ID NO:40 (antibody)
heavy: B1 heavy with S63T
light: B1 light

Assays:
[1] = Thermal ramp stability (UNcle, Sypro Orange fluorescence and static light scattering); assay type: physicochemical; conditions: for ranking by Tagg (SLS profiles): among the chimeric and six lead humanized variants
From the text: Thermal ramp stability experiments (Tm and Tagg) are well established methods for ranking proteins and formulations for stability. A protein's denaturation profile provides information about its thermal stability and represents a structural ‘fingerprint’ for assessing structural and formulation buffer modifications. A widely used measure of the thermal structural stability of a protein is the temperature at which it unfolds from the native state to a denatured state. For many proteins, this unfolding process occurs over a narrow temperature range and the mid-point of this transition is termed ‘melting temperature’ or ‘Tm’. To determine the melting temperature of a protein, UNcle measures the fluorescence of Sypro Orange (which binds to exposed hydrophobic regions of proteins) as the protein undergoes conformational changes.
Samples for each variant were formulated in PBS and Sypro Orange at a final concentration of 1 mg/mL. 9 μL of each sample mixture was loaded in duplicate into UNi microcuvettes. Samples were subjected to a thermal ramp from 25-95° C., with a ramp rate of 0.3° C./minute and excitation at 473 nm. Full emission spectra were collected from 250-720 nm, and the area under the curve between 510-680 nm was used to calculate the inflection points of the transition curves (Tonset and Tm). Monitoring of static light scattering (SLS) at 473 nm allowed the detection of protein aggregation, and Tagg (onset of aggregation) was calculated from the resulting SLS profiles. Thermal stability values determined lie in a broad range from 57.9 to 69.6° C. (Tm1), 55.1 to 65.2° C. (Tonset) and 65.6 to 70.2° C. (Tagg) with the humanized leads generally showing improved profiles when compared to the chimeric antibody. […] All humanized antibodies appear to have a higher Tm1, Tonset and Tagg compared to the chimeric antibody.

EphA5- cells = assay: Antibody internalization, EphA5- cells; assay type: cell-based
[2] = tested on: H460, A549 and H1299 human lung carcinoma cells; assay: Incucyte Fabfluor-pH Red antibody internalization, real-time live cell imaging; assay type: cell-based; conditions: pH-sensitive Fabfluor dye, various concentrations
Procedure: In vitro studies were conducted in which three different Eph5A-expressing target cell lines were incubated with various concentrations of VH5Vk3 or VH4Vk3 antibodies after which internalization of bound antibody was calculated. Antibody internalization was performed with the Incucyte® Human Fabfluor-pH Red Antibody Labeling Dye and the naked VH4Vk3 (FIG. 66) and VH5Vk3 (FIG. 67) human monoclonal antibodies in the following cell lines: H460 human lung carcinoma, A549 human lung carcinoma and H1299 human lung carcinoma. These cell lines express variable levels of EphA5 on the cell surface: H460 (+++)>A549 (++)=H1299 (++). Internalization was visualized and quantified using real-time live cell imaging analysis. The Fabfluor-pH Red Antibody Labeling Dye is sensitive to pH and only emits fluorescence once inside lysosomes in low pH conditions.

[3] = target: T1, recombinant human EphA5 (rhEphA5) antigen (Homo sapiens, UniProt P54756); assay: Biacore multi-cycle kinetic analysis of purified antibodies, 1:1 model; assay type: binding
T1 construct: purchased R and D systems 3036-A5
T1 sequence (P54756 25-573 limits assumed): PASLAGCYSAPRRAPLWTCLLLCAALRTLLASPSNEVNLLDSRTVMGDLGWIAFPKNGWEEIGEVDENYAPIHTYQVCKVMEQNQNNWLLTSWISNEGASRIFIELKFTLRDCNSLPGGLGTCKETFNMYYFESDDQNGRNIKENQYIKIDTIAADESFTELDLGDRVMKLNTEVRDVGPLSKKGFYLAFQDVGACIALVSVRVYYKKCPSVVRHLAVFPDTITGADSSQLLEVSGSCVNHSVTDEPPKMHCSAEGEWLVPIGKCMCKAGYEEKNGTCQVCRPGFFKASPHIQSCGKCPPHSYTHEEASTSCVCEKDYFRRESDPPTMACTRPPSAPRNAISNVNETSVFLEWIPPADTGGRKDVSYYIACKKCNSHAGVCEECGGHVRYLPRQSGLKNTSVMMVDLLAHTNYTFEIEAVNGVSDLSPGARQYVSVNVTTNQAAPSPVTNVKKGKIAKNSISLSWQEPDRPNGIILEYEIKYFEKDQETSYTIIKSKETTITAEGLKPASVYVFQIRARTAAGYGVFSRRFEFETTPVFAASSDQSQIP
Procedure: In order to assess the binding of the six lead humanized variants to rhEphA5 antigen, multi-cycle kinetic analysis (FIG. 68) was performed on purified material. Kinetic experiments were performed at 25° C. on a Biacore T200 running Biacore T200 Control software V2.0.1 and Evaluation software V3.0 (GE Healthcare, Uppsala, Sweden).
HBS-P+ (GE Healthcare, Uppsala, Sweden), supplemented with 1% BSA w/v (Sigma, Dorset, UK) was used as running buffer as well as for ligand and analyte dilutions. Purified lead antibodies were diluted to 0.5 μg/mL in running buffer and at the start of each cycle, loaded onto Fc2, Fc3 and Fc4 of an anti-human IgG CM5 sensor chip (GE Healthcare, Little Chalfont, UK). Antibodies were captured at a flow rate of 10 μl/min to give an immobilization level (RL) of ~50 RU. The surface was then allowed to stabilize.
Multi-cycle kinetic data was obtained using recombinant EphA5 as the analytes injected at a flow rate of 30 μl/min to minimize any potential mass transfer effects. A five point, three-fold dilution range from 1.11 nM to 270 nM of EphA5 was prepared in running buffer. For each concentration, the association phases were monitored for 210 seconds and the dissociation phase was measured for 900 seconds. […]
A summary of the kinetic constants determined from the 1:1 model fitted curves is shown in FIG. 19 with fitted curves shown in FIG. 20.

[4] = tested on: EphA5+ cells (H460 human lung cancer cells); assay: Antibody internalization after binding to cell-surface EPHA5, EphA5+ cells; assay type: cell-based; conditions: various antibody concentrations
[5] = tested on: Membrane Proteome Array, 6,000 human membrane protein clones; assay: Membrane Proteome Array (MPA) specificity screen; assay type: binding; conditions: antibody at 20 μg/ml, HEK-293T
Procedure: Membrane Proteome Array: Membrane Proteome Array (MPA) screening was conducted at Integral Molecular. The MPA is a protein library composed of 6,000 human membrane protein clones, each overexpressed in live cells from expression plasmids. Each clone was individually transfected in separate wells of a 384-well plate followed by a 36 h incubation (Tucker et al., 2018). Cells expressing each individual MPA protein clone were arrayed in duplicate in a matrix format for high-throughput screening. Before screening on the MPA, the test antibody concentration for screening was determined on cells expressing positive (membrane-tethered Protein A) and negative (mock-transfected) binding controls, followed by detection by flow cytometry using a fluorescently-labeled secondary antibody. Each test antibody was added to the MPA at the predetermined concentration, and binding across the protein library was measured on an Intellicyt iQue using a fluorescently-labeled secondary antibody. Each array plate contains both positive (Fc-binding) and negative (empty vector) controls to ensure plate-to-plate reproducibility. […]
To identify antibody binding targets, ~6,000 different membrane proteins were each expressed in individual wells of HEK-293T or QT6 cells arrayed in 384 well plates. […] Non-specific fluorescence was determined to be any value below 3 standard deviations of the mean background value.

Molecule | ranking by Tagg (SLS profiles) [1] | Average Tonset (° C.) ([1]; average of duplicates) | Average Tm1 (° C.) ([1]; average of duplicates, 1 mg/mL in PBS) | Average Tagg 473 (° C.) ([1]; average of duplicates, SLS at 473 nm) | Tonset (° C.) ([1]; single replicate) | Tm1 (° C.) ([1]; single replicate, 1 mg/mL in PBS, ramp 25-95° C.) | Tagg 473 (° C.) ([1]; single replicate, SLS at 473 nm) | internalization into EphA5- cells (EphA5- cells) | internalization and lysosomal trafficking of the naked antibody [2] | kd ([3]; Biacore T200, 25° C., IgG captured on anti-human IgG chip) | RMAX ([3]; fitted 1:1 model) | internalization into EphA5+ cells [4] | Identified membrane protein targets: Target gene (HGNC) ([5]; listed as EPHA5 H5K3) | Identified membrane protein targets: Target gene (HGNC) [5]
B1 | highest Tagg values | 63.6 °C | 69.0 °C | 70.2 °C | 63.59 °C | 68.99 °C | 70.17 °C | but not EphA5-cells | receptor-mediated internalization and trafficking | 0.00135 s⁻¹ | 35.3 | dose dependent; also recorded: internalized into EphA5+ cells | EPHA5; also recorded: CPT1B | 
B2 | highest Tagg values |  |  |  |  |  |  |  | receptor-mediated internalization and trafficking |  |  |  |  | EPHA5

Changes are numbered by the printed parent chain. “Also recorded” adds a separate entry of the source.
